# Source: ChEMBL document CHEMBL1157539, “Thousands of chemical starting points for antimalarial lead identification” (Nature, 2010)
# In all, about 13,000 compounds were measured (“IFI”: median about 4, highest 2% from about 17 on). This is one part of the list.
# Assay: GSK_TCMDC: Inhibition Frequency Index (IFI). The number of non-kinase HTS assays where a compound showed > 50 % inhibition, expressed as a percentage of the number of such assays in which the compound was tested (-0 is zero)
# Assay type: functional
row,SMILES,IFI [%]
1,COc1ccc2c(=NN=Cc3ccncc3)cc(C)[nH]c2c1,1.42
2,N#Cc1cccc(/C=C/C(=O)NC2CCC(CCN3CCc4ccc(-c5cnccn5)cc4CC3)CC2)c1 (stereo unspecified),3.91
3,Clc1ccc(CNc2nc(NCCc3c[nH]cn3)nc(NC3CCCCC3)n2)cc1,1.47
4,COc1ccc2nccc([C@@H](O)CN3CCC(NC(=O)c4cc5c(Cl)cc(Cl)cc5[nH]4)CC3)c2c1,5.15
5,CC1(C)NC(N)=NC(=N)N1OCCCOc1cc(Cl)cc(Cl)c1,3.5
6,Oc1ccccc1CNC1CCCCC1NCc1ccccc1O (stereo unspecified),4.51
7,COc1ccc(-c2nc(NC(=O)CS(=O)(=O)c3ccc(OC)cc3)sc2C)cc1,5.63
8,CCOC(=O)CNCC(=O)c1ccc(OCc2ccccc2)cc1,2.84
9,O=C(NCCN1CCCC1)c1ccc(-c2ccc(-c3nc4cc(C(F)(F)F)ccc4[nH]3)s2)cc1,7.14
10,CC(C)c1ccc(Cn2cc(-c3ccncc3)c3cc(OCc4ccccc4)ccc32)cc1,0.76
11,CN1CCC(N2CCN(Cc3cccc(-c4ccc(-c5nc6cc(C(F)(F)F)ccc6[nH]5)cc4)c3)CC2)CC1,9.72
12,COc1ccc(-c2ccc(NC(=O)c3ccc(Cl)cc3)cc2)cc1CN1CCNCC1,7.79
13,Oc1ccc(CCCNc2nc(NCc3cccc4ccccc34)nc(N3CCNCC3)n2)cc1,7.69
14,CCNc1cc(C(=O)N[C@@H](Cc2ccccc2)[C@H](O)CNCc2cccc(OC)c2C)cc(N2CCCCS2(=O)=O)c1,2.17
15,CCCNC(=O)Nc1ccc(N(C)c2ccnc(NC3CC3)n2)cc1,5.45
16,CCCCCCCN1CCC(CC(=O)Nc2ccnc3ccc(OC)cc23)C(CC)C1 (stereo unspecified),0
17,CCc1cn(C)c2c(N3CCCC3=O)cc(C(=O)N[C@@H](Cc3ccccc3)[C@H](O)CNCc3cccc(OC)c3)cc12,2.94
18,O=C(Nc1ccc(Cl)cc1C(=O)Nc1ccncc1)c1ccc(Cl)cc1Cl,2.68
19,CCCCOc1ccc(CNCCCCCCNCc2ccc(OCCCC)c3ccccc23)c2ccccc12,17.8

row,SMILES,IFI [%]
1,COc1cc2nccc(Nc3ccc(OCc4ccc(NC(C)=O)cc4)cc3)c2cc1OC,5.84
2,CC(C)(C)OC(=O)NCCc1cccc(-c2c[nH]c3ncc(-c4cccc(NS(C)(=O)=O)c4)cc23)c1,12.9
3,FC(F)(F)c1cccc(-c2cc(NCCCn3ccnc3)nc(-c3ccncc3)n2)c1,9.38
4,CCCCN1CC[C@@H](CCC(O)c2ccnc3ccc(OCCC(C)C)cc23)[C@@H](CC)C1 (stereo partly specified),3.55
5,Cc1noc(-c2ccc3c(c2)CCN(CCC2CCC(NC(=O)c4cc5ccccc5[nH]4)CC2)CC3)n1 (stereo unspecified),2.24
6,COC(=O)c1ccc2nc(-c3ccc(C(=O)NC4CCN(Cc5ccccc5)CC4)s3)[nH]c2c1,1.5
7,FC(F)(F)c1ccc2[nH]c(-c3cccc(-c4cccc(CNCCc5ccncc5)c4)c3)nc2c1,8.82
8,Fc1ccc(C=NN=c2cc[nH]c3ccccc23)cc1,4.58
9,COc1cc(-c2nc3c4ccccc4c4ccccc4c3[nH]2)cc(OC)c1OC,1.48
10,COc1cccc(Nc2c(C(N)=O)cnc3ccc(-c4ccccc4)cc23)c1,5.04
11,Cc1cc2nc(-c3ccc(/C=C/C(=O)NCCc4ccccc4)cc3)[nH]c2cc1C,0.75
12,CC(C)(C)c1ccc(C(=O)Nc2ccc3nc4c(c(N)c3c2)CCCC4)cc1,4.9
13,COc1ccc(CCCN2C(=O)C(c3ccccc3)(c3ccccc3)N=C2N)cc1,8.65
14,CC1CN(Cc2ccc(-c3ccc(-c4nc5cc(F)ccc5[nH]4)s3)cc2)CC(C)O1 (stereo unspecified),8.33
15,COc1ccc(-c2cc3ncn(CC(=O)N4CCN(c5cccc(OC)c5)CC4)c(=O)c3s2)cc1,5.63
16,O=C(/C=C/c1cccc(Cl)c1)N1CCC(C(O)CN2CCC3(CC2)CN(C(=O)/C=C/c2cccc(Cl)c2)c2ccccc23)CC1 (stereo unspecified),3.7
17,Cc1nc(-c2ccc(-c3ccc(C(=O)Nc4ccc(I)c(OCCN5CCCC5)c4)cc3)c(C)c2)no1,6.77
18,COc1ccc(-c2ccc(NC(=O)c3cccc(Cl)c3)c(F)c2)cc1CN1CCCN(C)CC1,8.05
19,Oc1cc(-c2nc(-c3ccccc3)[nH]c2-c2ccncc2)ccc1Cl,8.39

row,SMILES,IFI [%]
1,CCOC(=O)NC1=NC(C)(C)N(OCCCOc2cc(Cl)c(Cl)cc2Cl)C(NC(=O)OCC)=N1,3.74
2,COCCN1CCC(CN(C)CC(C)(C)c2nc(-c3ccc(Cl)c(O)c3)c(-c3ccncc3)[nH]2)CC1,0
3,O=C1O[C@H](c2ccccc2)[C@H](c2ccccc2)N(C(=O)OCc2ccccc2)[C@H]1Cc1ccccc1C1CCCC1,1.42
4,Cc1cccc(Nc2nc(N[C@@H]3CCCNC3)nc3cc[nH]c(=O)c23)c1,16.7
5,CCOc1cc2ncnc(Nc3ccc(OCc4ccccc4Br)c(OC)c3)c2cc1OCC,1.48
6,COc1ccc(Nc2nc(NC3CCCC3)cc(-c3ccc(OC)cc3)n2)cc1,4.69
7,CC1(C)CCC(C)(C)c2c1ccc(C1CCN(CCCCNC(=O)c3ccc(-c4ccc(C#N)cc4)cc3)CC1)c2O,9.92
8,O=C(Nc1ccc(F)cc1)c1cnc(N2CCN(c3ccncc3)CC2)c(Cl)c1,8.51
9,Cc1ccc(CNC(=O)[C@H](Cc2ccccc2)Nc2cc(C)nc(NCCc3ccc(F)cc3)n2)cc1,11.4
10,Cc1ccc(C)c(S(=O)(=O)Nc2ccc(Br)cc2C(=O)Nc2cccc(C(F)(F)F)c2)c1,21.1
11,N=C(N)Nc1cccc(NC(=O)Nc2cccc(NC(=N)N)c2)c1,1.48
12,C#Cc1cccc(NC(=O)[C@H](CC2CCCCC2)Nc2ccc(C#N)c3ccccc23)c1,3.77
13,Cc1ccccc1C1CCN(c2ccc(C(=O)Nc3ccccc3)cn2)CC1,10.2
14,CN1CCC(NCc2ccc(-c3cccc(S(=O)(=O)NCCc4ccccn4)c3)cc2)CC1,1.96
15,Cc1cc(CN2CCC(N3CC(c4ccccc4)(c4ccccc4)OCC3=O)C2)ccc1O (stereo unspecified),7.5
16,CCN1CCC(N(Cc2ccc(-c3ccc(C(F)(F)F)cc3)cc2)C(=O)Cn2c(CCc3cccc(F)c3F)cc(=O)c3ccccc32)C1 (stereo unspecified),4.29
17,O=C(NCCNc1noc(-c2sccc2Br)n1)c1ccc(Cl)cc1,3.03
18,CC(CNC(=O)c1cc2c(Cl)cc(Cl)cc2[nH]1)CNc1cc(=O)c2ccccc2[nH]1 (stereo unspecified),9.02
